Data as given in PMC4336329 (PLoS ONE, 2015).
About 2,200 (0.71%) of roughly 310,000 compounds showed an effect of 50% or more. The effect is printed as a negative number. The list shows a part of the results.

These compounds were tested against human ether-à-go-go-related gene (hERG) potassium channel (human, UniProt Q12809) (assay: primary screen, population patch clamp on CHO cells stably expressing hERG).
Chain of human ether-à-go-go-related gene (hERG) potassium channel (Q12809 whole entry, looked up): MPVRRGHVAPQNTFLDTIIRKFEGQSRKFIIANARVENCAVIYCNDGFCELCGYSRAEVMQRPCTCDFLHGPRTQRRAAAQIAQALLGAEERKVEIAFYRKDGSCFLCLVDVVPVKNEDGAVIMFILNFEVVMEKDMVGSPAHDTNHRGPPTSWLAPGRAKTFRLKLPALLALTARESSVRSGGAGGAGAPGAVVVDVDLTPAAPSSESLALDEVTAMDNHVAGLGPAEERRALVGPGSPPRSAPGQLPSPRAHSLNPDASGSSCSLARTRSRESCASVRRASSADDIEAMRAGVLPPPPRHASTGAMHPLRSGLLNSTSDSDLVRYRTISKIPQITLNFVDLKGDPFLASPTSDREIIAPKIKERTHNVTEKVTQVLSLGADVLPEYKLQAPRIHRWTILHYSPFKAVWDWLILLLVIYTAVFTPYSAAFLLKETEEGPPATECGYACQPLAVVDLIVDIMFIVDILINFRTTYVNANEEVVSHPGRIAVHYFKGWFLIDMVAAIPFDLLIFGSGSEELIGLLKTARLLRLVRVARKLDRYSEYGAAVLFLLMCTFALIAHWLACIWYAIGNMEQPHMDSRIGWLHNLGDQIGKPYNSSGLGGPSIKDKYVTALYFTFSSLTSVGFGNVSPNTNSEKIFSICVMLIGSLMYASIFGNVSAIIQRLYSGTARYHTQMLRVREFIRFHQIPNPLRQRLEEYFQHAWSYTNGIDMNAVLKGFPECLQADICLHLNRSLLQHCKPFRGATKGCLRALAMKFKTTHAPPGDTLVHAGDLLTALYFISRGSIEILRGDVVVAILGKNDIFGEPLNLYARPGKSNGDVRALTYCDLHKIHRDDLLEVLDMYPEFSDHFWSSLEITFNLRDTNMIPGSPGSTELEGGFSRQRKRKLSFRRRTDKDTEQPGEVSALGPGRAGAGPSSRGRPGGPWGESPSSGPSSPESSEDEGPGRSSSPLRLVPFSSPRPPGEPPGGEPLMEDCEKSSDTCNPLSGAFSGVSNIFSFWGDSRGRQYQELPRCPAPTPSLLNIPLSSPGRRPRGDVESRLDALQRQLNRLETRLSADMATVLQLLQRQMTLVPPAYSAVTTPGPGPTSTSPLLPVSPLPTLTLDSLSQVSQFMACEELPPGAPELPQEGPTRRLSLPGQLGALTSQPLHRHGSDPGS

| Compound | hERG current change (%, negative = inhibition) at 1uM [%] |
| --- | --- |
| O=C(NC(=S)Nc1ccccc1)c1ccc(-c2ccccc2)cc1 | 21 |
| COc1ccc(C2/C(=C(/O)c3ccc(F)cc3)C(=O)C(=O)N2c2ccccn2)cc1OC (stereo not shown) | 11.7 |
| CC1(C)SC2c3ccccc3C(=O)N2[C@@H]1C(=O)NC1CC1 (stereo partly shown) | 10.9 |
| C/C(=N\NC(=O)Cc1ccc(O)cc1)c1cccnc1 | 17.4 |
| Cc1ccc(F)cc1NC(=O)CCc1c(C)[nH]c(=O)c(C#N)c1C | 15.1 |
| COc1cc(C(N)=O)cc(Cl)c1OCc1ccccc1 | 5.21 |
| COc1ccc(N2CC(C(=O)N3CCN(Cc4ccc5c(c4)OCO5)CC3)CC2=O)cc1 (stereo not shown) | 15.4 |
| CCS(=O)(=O)Nc1cccc(-c2nc3cccnc3s2)c1C | 9.02 |
| CCNc1nc(NCC)nc(C(=O)OCCO)n1 | -3.37 |
| Cc1cnc(C(=O)OC(C(=O)c2c[nH]c3ccccc23)c2ccccc2)cn1 (stereo not shown) | 11.9 |
| CCOC(=O)c1nnc2cc(-c3ccc(Br)cc3)nn2c1C | 6.29 |
| CC(=O)CSc1ncnc2scc(-c3ccc(F)cc3)c12 | 13.9 |
| CCOc1ccc(NC(=O)CS(=O)(=O)c2cn(C)c3ccccc23)cc1 | 16.8 |
| Cc1ccc(CN2C(=O)C(Cc3ccccc3)Nc3ncnc(N4CCN(c5ccccc5)CC4)c32)cc1.O=C(O)C(F)(F)F (stereo not shown) | 7 |
| Cc1cc(C)n(C(=O)CCCCCC(=O)n2nc(C)cc2C)n1 | 7.68 |
| O=C(CN1C(=O)CC(c2ccccc2)S(=O)(=O)c2ccccc21)NC1CCCC1 (stereo not shown) | 2.76 |
| CCn1c(SCC(=O)N2CCCCC2C)nnc1-c1ccc(S(=O)(=O)N2CCN(C)CC2)cc1 (stereo not shown) | -6.94 |
| CC(=S)c1c(C)cc2cc(C)ccn12 | 7.89 |
| Cc1ccccc1C(=O)N1CCC(C(=O)N2CCN(S(=O)(=O)c3ccccc3F)CC2)CC1 | 13.1 |
| Cc1ccc(CN(C)C(=O)CCc2nc3sc4c(c3c(=O)[nH]2)CCCC4)o1 | 12.4 |
| Cc1cc(/C=N/NC(=O)COc2cccc3cccnc23)c(C)n1-c1ccc(O)cc1 | 9.18 |
| CCC(=O)n1nc(-c2ccc(OC)cc2)nc1N | 7.87 |

| Compound | hERG current change (%, negative = inhibition) at 1uM [%] |
| --- | --- |
| CCOC(=O)/C(C#N)=N/Nc1ccccc1C#N | 11.2 |
| Cc1ccc(NC(=O)CNCC(c2ccccc2)N(C)C)cc1F.O=C(O)C(=O)O (stereo not shown) | -3.58 |
| CCOC(=O)C(CSCC(=O)c1ccc(Cl)cc1)NC(=O)OC(C)(C)C (stereo not shown) | 11.2 |
| Cc1ccc(O)c(NC(=O)c2cc([N+](=O)[O-])ccc2Cl)c1 | -1.69 |
| CCOC(=O)c1c(C(C#N)C#N)cc(C)nc1C | 11.2 |
| COc1ccc(-c2c(C(C)=O)c(C)n(C)c2C)cc1 | 4.51 |
| CN(C)c1ccc(N=Nc2ccc(S(N)(=O)=O)cc2)cc1 | 14.5 |
| CCOC(=O)c1c(NC(=O)OC)sc(C(=O)N(C)C)c1C | -4.56 |
| COc1ccccc1C1=NOC(CN2C(=O)c3ccccc3S2(=O)=O)C1 (stereo not shown) | 3.55 |
| O=C(O)C1CCCCC1C(=O)NCc1ccccc1 (stereo not shown) | -4.05 |
| CC(=O)Nc1ccc(S(=O)(=O)N[C@@H](C)C(=O)N2CCN(c3ccccn3)CC2)cc1 | 12.5 |
| O=C(CSCc1ccccc1)Nc1ccc(Cl)cn1 | 13.5 |
| O=C(CSc1nnnn1-c1ccccc1)NC(=O)Cc1ccccc1 | 15.2 |
| Cc1ccc(CN=c2c([N+](=O)[O-])nn(-c3ccc4c(c3)OCCO4)n2O)cc1 | 17.7 |
| COc1cccc(/C=C/C(=O)NNC(=O)c2ccncc2)c1OC | 9.53 |
| COc1cc(-c2nc(-c3cccnc3)no2)cc(OC)c1OC | 11.7 |
| CN(c1cccc(NS(=O)(=O)c2ccccc2)c1)S(C)(=O)=O | 12.2 |
| CN(CC(=O)Nc1ccccc1Cl)C(=O)COC(=O)c1ccc(=O)n(Cc2ccccc2)n1 | -2.75 |
| CCOc1ccc(CN2CCNC(=O)C2CC(=O)NCc2ccccn2)cc1 (stereo not shown) | -4.45 |
| CCc1cc(=O)oc2cc(C)cc(OC(C)C(=O)NC3CCN(Cc4ccccc4)CC3)c12 (stereo not shown) | -7.8 |
| CCOC(=O)C1=C(N)N2C(=O)C(C)SC2=C(C(=O)OCC)C1c1cc(OC)c(OC)c(OC)c1 (stereo not shown) | 9.5 |
